From the RNAGym collection of RNA variant scans (doi:10.7554/elife.90254)
Read counts are not given, so values of variants with three or more changes are uncertain.

B1: LINE1-full (parent)
chain: UACGUAGGUGGUUUUCCCCUGAUAGUGCUAAGGGGGCCUGGAAGUUUGGACUGGGCAGAGCUCAACACAGCGUGGCAAAGUGGCUGUGGCUAGACUGCCUCUCUGGAUUCCUCGUCACUCAGCAGGGCAUCUCUGAGAGAAAUGCC

Variants of: B1
Assay: self-cleavage, relative activity (ratio to wild type); higher = more cleavage; in vitro, sequencing; the parent is a self-cleaving ribozyme

Variant	self-cleavage
UACGUAGGUAGUUUUCCCCUGAUAGUGCUAAGGGGGCCUGGAAGAUUGGACUGGGCAGAGCUCAACGCAGCGUGGCAAAGUGGCUGUGGCUAGACUGCCUCUCUGGAUUCCUCGUCACUCAGCAGGGCAUCUCUGAGAGAAAUGCC	0.27
UACGUAGGUGGUUUUCCCCUGAUAGUGCUCAGGGGGCCUGGAGGUUUGGACUGGGCAGAGCUCAACACAGCGUGGCAAAGUGGCUGUGGCUAGACUGCCUCUCUGGAUUCCUCGUCACUCAGUAGGGCAUCUCUGAGAGAAAUGCC	2.21
UACGUAGGAGGUUUUCCCCUGAUAGUGCUAAGGGGGCCUGGAAGUUUGGACUGGGCAGAGCUCAACACAGCGUGGCAAAGUGGCUGUGGCUAGACUGCCUCUCUAGAUUCCUCGUCUCUCAGCAGGGCAUCUCUGAGAGAAAUGCC	0.74
UACGUAGGUGGUUUACCCCUGAUAGUGCGAAGGGGGCCUGGAAGUUUGGACUGGGCAGAGCUCAACACAGCGUGGCAAAGUGGCUGUGGCUAGACUGCCUCACUGGAUUCCUCGUCACUCAGCAGGGCAUCUCUGAGAGAAAUGCC	0.64
UACGUAGGUGGUCUUCCCCUGAUAGUGCUAAGGGAGCCAGGAAGUUUGGACUGGGCAGAGCUCAACACAGCGUGGCAAAGUGGCUGUGGCUAGACUGCCUCUCUGGAUUCCUCGUCACUCAGCAGGGCAUCUCUGAGAGAAAUGCC	1.32
UACGUAGGUGGUUCUCCCCUGAUAGUGCUAAAGGGGCCUGGAAGUCUGGACUGGGCAGAGCUCAACACAGCGUGGCAAGGUGGCUGUGGCUAGACUGCCUCUCUGGAUUCCUAGUCACUCAGCAGGGCAUCUCUGAGAGAAAUGCC	2.19
UACGUAGGUGGUUAUCCCCUGAUAGUGCUAAGGGGGCCUGGAAGUUUGGACUGGGCAGAGCUCAACACAGCGUGGCAAAGUGGCUGUGGCUAGACUGCCACUCUGGAUUCCUCGUCACUCAGCAGGGCACCUCUGAGAGAAAUGCC	0.93
UACGUAGGUGGUUUUCCCCUGAUAGUGCUCAGGGGGCCAGGAAGUUUGGACUGGGCAGAGCUCAACACAGCGUGGCAAAGUGGCUGUGGCUAGACUGCCUCUCUGGAUUCCUCGUCUCUCAGCAGGGCAUCUCUGAGAGAAAUGCC	1.62
UACGUAGGUGGUUUUCCCCUAAUAGUGCUAAGGGGGCCUGGAAGUUUGGACUGGGCAGAGCUCAACACAGCGUGGCAAAGUGGCCGUGGCUAGACUGCCUCUCUGGAUUCCUCGUCACUCAGCAGGGCAUCUCUGUGAGAAAUGCC	0.18
UUCGUAGGUGGUCUUCCCCUGAUAGUGCUAAGGGGGCCUGGAAGUUUGGACUGGGCAGAGCUCAACACAGCGUGGCAAAGUGGCUGUGGCUAGACUGCCUCUCUGGAUUCCUCGUCACUCAACAGGGCAUCUCUGAGAGAAAUGCC	0.54
UUCGUGGGUGGUUCUCCCCUGAUAGUGCUAAGGGGGCCUGGAAGUUUGGACUGAGCAGAGCUCAACGCAGCGUGGCAAAGUGGCUGUGGCUAGACUGCCUCUCUGGAUUCCUCGUCACCCAGCAGGGCAUCUCUGAGAGAAAUGCC	0.33
UACGUAGGUGGUUCUCCCCUGAUAGUGCUAAGGGGGCCUGGAAGUUUGGACUGGGCAGAGCCCAACACAGCGUGGCAAAGUGGCUGUGGCUAGACUGCCUCUCUGGAUUCCUCGUCACUCAGCAGGGCAUCUCUGAGGGAAAUGCC	0.1
UACGUAGGUGGUUUUCCCCUGAUAGUGCUAAGGGGGCCUGGAAGCUUGGACUGGGCAGAGCUCAACACAGCGUGGCUAAGUGGCUGUGGCUAGACUGCCUCUCUGGAUUCCUCGUCACUCAGCAGGGCAUCUCUGGGAGAAAUGCC	0.99
UACGUAGGUGGUGUUCCCCUGAUAGUGCUAAGGGGGCCUGGAAGUUUGGACUGGGCAGAGCUCAACACAGCGUGGCAAGGUGGCUGUGGCUAGACAGCCUCUCUGGGUUCCUCGUCACUCAGCAGGGCAUCUCUGAGAGAAAUGCC	0.12
UACGUAGGUGGAUUUCCCCUGAUAGUGCUAAGGAGGCCUGGAAGUUUGGACUGGGCAGAGCUCAACACAGCGUGGCAAAGUGGCUGUGGCUAGACUGCCUCUCUGGAUUCCUCGUCACUCAGCAGGGCAUCUCCGAGAGAAAUGCC	1.53
UACGUAGGCGGUUUUCCCCUGAUAGUGCAAAGGGGGCCUGGAAGUUUGGACUGGGCAGGGCUCAACACAGCGUGGCAAAGUGGCUGUGGCUAGACUGCCUCUCUGGAUUCCUCGUCACUCAGCAGGGCAUCUCUGAGAGGAAUGCC	0.4
UACGCAGGUGGUUUUCCCCUGAUAGUGCUAAGGGGGCCUGGAAGUUUGGACUGGGCAGAGCUCAACACAGCGUGGCAAAGUGGCUGUGGCUAGACUGCCUCUCUGGAUUCCUCGUCACUCUGCAGGGCACCUCUGAGAGAAAUGCC	1.47
UACGUAGGUGGUUUUCCCCUGAUAGUGCUAAGGGGGCCUGGAAGUUUGGACUGGGCAGAGCUCAACACAGCGUGGCAAAGUGGCUGUGGCUAGACUGCCUCUCUGGAUUCCUCGUCACUCAGCAGGGCAUCUCUGAGAGUAGCGCC	2.04
UACGUAGGUGGUUUUCCCCUGAUAGUGCUCAGGGGGCCAGGAAGUUUGGACUGGGCAGAGCUCAACACAGCGUGGCAAAGUGGCUGUGGCUAGACUGCCUCUCUGGAUUCCUCGCCACUCAGCAGGGCAUCUCUGAGAGAAAUGCC	1.72
UACGUAGGUGGUUUUCCCCUGAUAGUGCUAAGGGGGCCUGGAAGUUUGGACUGUGCAGAGCUCAACACAGCGUGGCAAAGUGGCUGUGGCUAGACUGCCUCUCUGGAUUCCUCGUCACUCAGCAGGGCACCUCAGAGAGAAAUGCC	1

Variant	self-cleavage
UACGUAGGUGGUCAUCCCCUGACAGUGCUAAGGGGGCCUGGAAGUUUGGACUGGGCAGGGCUCAACACAGCGUGGCAAAGUGGCUGUGGCUAGACUGCCUCUCUGGAUUCCUCGUCACUCAGCAGGGCAUCUCUGAGAGUAAUGCC	0.32
UACGUAGGUGGUUUUCCCCUGAUUGUGCUAAGGGGGCCUGGAAGUUUGGACUGGGCAGAGCUCAACACAGCGUGGCAAAGUGGCUGUGGCUAGACUGCCUCUCUGGAUUCCUCGUAACUCAGCAGGGCAUCUCUGAGAGGAGUGCC	0.87
UACGUAGGUGGUUUUCCCCUGAUAGUGCUAAGGGUGCCUGUAAGUUUGGACUGGGCAGAGCUCAACACGGCGUGGCAAAGUGGCUGUGGCUAGACUGCCUCUCUGGAUUCCUCGUCACUCAGCAGGGCAUCUCUGAGAGAAAUGCC	0.11
UACGUAGGUGAUUUUCCCCUGAUAGUGCUAAGGGGGCCUGGAUGUUUGGACUGGGCAGAGCUCAGCACAGCGUGGCAAAGUGGCUGUGGCUAGACUGCCUCUCUGGAUUCCUCGUCACUCAGCAGGGCAUCUCUGAGAGAAAUGCC	0
UACGUAGGUGGUUUUCCCCUGAUAAUGCUAAGGGGGCCUGGAAGUUUGGACUGGGCAGAGCUCAACACUGCGUGGCAAAGUGGCUGUGGCUAGACUGCCUCUCUGGAUUCCUCGUCUCUCAGCAGGGCAUCUCUGAGAGAAAUGCC	0.03
UACGUAGGUGGUUUUCCCCUGAUAGUGCUAAGGGGGCCUGGAAGUUUGGACUGGGCGGAGCACAACACGGCGUGGCAAAGUGGCUGUGGCUAGACUGCCUCUCUGGAUUCCUCGUCACUCAGCAGGGCAUCUCUGAGAGAAAUGCC	0.06
UACGUAGGUGGUUUUCCCCUGAUAGUGCUAGGGGGGCCUGGAAGCUUGGACUGGGCAGAGCUUAACACAGCGUGGCAAAGUGGCUGUGGCUAGACUGCCUCUCUGGAUUCCUCUUCACUCAGCAGGGCAUCUCUGAGAGAAAUGCC	0.27
UACGUAGGUGGUUUUCCCCUGAUAGUGCUAAGGGGGCUUGGAAGUUUGGACUGGGCAGAGCUCAACACAGCGUGGCAAAGUGGCUGUGGCUAGACUGCCUCUCUGGAUCCCUCGCCACUCAGCAGGGCGUCUCUGAGAGAAAUGCC	1.46
UACGUAGGAGGUUUUCCCCUGAUAGUGCUAAGGGGGCCUGGAAGUUUGGACUGGGCAGAACUCUACACAGCGUGGCAAAGUGGCUGUGGCUAGACUGCCUCUCUGGUUUCCUCGUCACUCAGCGGGGCAUCUCCGAGAGAAGUGCC	0
UACGUAGGUGGUUUUCCCCUGAUAGUGCUAAGGGGGCCUGGAAGUUUGGACUGGGCAGAGCUCAACACAGCGUGGCAAUGUGGCUGUGGCUAGACUGCCUCCCUGGAUUCCUCGUCACUCAGCAGGGCAUCUCUGUGAGAAAUGCC	1.79
UACGUAGGUGGUUUUCCCAUGAUAGUGCUAAGGCGGCCUGGAAGUUUGGACUGGACAGAGCUCAACACAGCGUGGCAAAGCGGCUGUGGCUAGACUGCCUCUCUGGAUUCCUCGUCACUCAGCAGGGCAUCUCUGAGAGAAAUGCC	0.46
UACGUAGGUGGUUUUCCCCUGAUAGUGCUAAGGGGGCAUGGAAGUUUGGACUGGGCAGAGCUCAACUCAGCGCGGCAAAGUGGCUGUGGCUAGACUGCCUCUCUGGAUUCCUCGUCACUCAGCAGGGCAUCUCUGAGCGAAAUGCC	0.15
UACGUAGGUGGUUUUCCCCUGAUAGUGCUAAGGGGGCCUGGAAGUUAGGACUGGGCAGGGCUCAACACAGCGUGGCAAAGUGGCUGUGGCUAGACUGCCUCUCUGGAUUCCUCGUCUCUCAGCAGGGCAUCUCUGAGGGAAAUGCC	0.09
UACGUUGGUGGUUUUCCCCUGAUAGUGCUAAGGGGGCCUGGAAGUCUGGACUGGGCAGAGCUCAACACAGCGAGGCAAAGUGGCUGUGGCAAGACUGCCUCUCUGGGUUCCUCGUCACUCAGCAGGGCGUCUCUGAGAGAAAUGCC	1.06
UACGUAGGUGGUUUUCCCCAGAUAAUGCUAAGGGGGCCUGGAAGUUUGGACUGGGCAGAGCCCAACACAGCGUGGCAAAGUGGCUGUGGCUAGACUGCCUCUCUGGAUUCCUCGUCACUCAGCAGGACAUCUCUGAGAGAAAUGCC	0.07
UACGUAGGUGGUUUUCCCCUGAUAGUGCUAAGGGGGCCAGGAAGUUUGGGCUGGGCAGAGCUCAACACAGCGUGGCAAAGUGGCUGUGGCUAGACUGCCUCUCUGGAUUCCUCGUCACUCAGCAGGGCAUCUCUGGGAGAAAUGCC	1.19
CACGUAGGUGGUUUUCCCCUGAUAGUGCUAAGGGGGCCUGGAAGUUUGGACUGGGCAGAGCUCAACACAGCGUGGCAAAGUGGCUGUGGCUAGACUGCCUCUCUUGAUUCCUCGUCGCUCAGCAGGGCAUCUCUGAGAGAAAUGCC	0.54
UACGUAGGUGGUCUUCCCCUGAUAGUGCUAAGGGGGCCUGGAAGUUUGGACUGGGCAGAGCUCAACGCAGCGUGGCAAGGUGGCUGUGGCUAGACUGCCUCUCUGGAUUCCUCGUCACUCAGCAGGGCAUCUCUGAGAGUAAUGCC	0.49
UACGUAGGUGGUUUUCCCCUGAUAGUGCUAAGGGAGCCUGGAAGCUUGGACUGGGCAGAGCUCAACACGGUGUGGCAAAGUGGCUGUGGCUAGACUGCCUCUCUGGAUUCCUCGUCACUCAGCAGGGCAUCUCUGAGAGAAAUGCC	0.08
